Data: patent US20130336977A1 (published 2013)

How the values were obtained:
CD20 [1] = biological target: T1, CD20 (human, UniProt P11836 1-297); assay: flow cytometry time course on Ramos cells loaded at 25 µg/ml, washed, kept at 37° C. or on ice
T1 construct: whole, on cells; also called human CD20; CD20 presented on WIL-2S cells
T1 sequence (looked up): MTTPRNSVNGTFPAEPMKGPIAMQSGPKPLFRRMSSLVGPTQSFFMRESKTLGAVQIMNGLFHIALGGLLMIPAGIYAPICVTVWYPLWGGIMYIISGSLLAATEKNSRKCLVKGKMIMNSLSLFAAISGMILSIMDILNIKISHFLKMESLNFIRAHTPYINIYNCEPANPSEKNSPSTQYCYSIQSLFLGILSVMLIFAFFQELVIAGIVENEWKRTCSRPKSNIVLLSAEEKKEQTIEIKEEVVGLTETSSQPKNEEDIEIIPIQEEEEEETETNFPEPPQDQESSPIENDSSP

CD20 [2] = biological target: T1, CD20; assay: flow cytometry time course of cell-surface persistence on Ramos cells
CD20 [3] = biological target: T1, CD20; assay: binding to CD20-positive WIL2S cells

B1: humanized CD20 (2Lm20-4) SMIP (Fc fusion)
chain: EIVLTQSPATLSLSPGERATLSCRASSSVSYIVWYQQKPGQAPRLLIYAPSNLASGIPARFSGSGSGTDFTLTISSLEPEDFAVYYCQQWSFNPPTFGQGTKVEIKDGGGSGGGGSGGGGSSQVQLVQSGAESKKPGASVKVSCKASGYTFTSYNMHWVRQAPGQGLEWMGAIYPGNGDTSYNQKFKGRVTMTRDTSTSTVYMELSSLRSEDTAVYYCARSYYSNSYWYFDLWGRGTLVTVSSS[in this place human IgG1 Fc with changes]
notes: also called hu CD20 (2Lm20-4) SMIP
- binding result (CD20 [1]): binds

B2: S0129 (other)
chain: EIVLTQSPATLSLSPGERATLSCRASSSVSYIVWYQQKPGQAPRLLIYAPSNLASGIPARFSGSGSGTDFTLTISSLEPEDFAVYYCQQWSFNPPTFGQGTKVEIKDGGGSGGGGSGGGGSSQVQLVQSGAESKKPGASVKVSCKASGYTFTSYNMHWVRQAPGQGLEWMGAIYPGNGDTSYNQKFKGRVTMTRDTSTSTVYMELSSLRSEDTAVYYCARSYYSNSYWYFDLWGRGTLVTVSSS[in this place human IgG1 Fc with changes]GCPPCPNSQVQLVQSGAESKKPGASVKVSCKASGYTFTSYNMHWVRQAPGQGLEWMGAIYPGNGDTSYNQKFKGRVTMTRDTSTSTVYMELSSLRSEDTAVYYCARSYYSNSYWYFDLWGRGTLVTVSSGGGGSGGGGSGGGGSASEIVLTQSPATLSLSPGERATLSCRASSSVSYIVWYQQKPGQAPRLLIYAPSNLASGIPARFSGSGSGTDFTLTISSLEPEDFAVYYCQQWSFNPPTFGQGTKVEIKD
modifications: Forms a disulfide-linked homodimer; one chain is given.
notes: Monospecific single-chain scorpion; also called CD20×CD20 scorpion S0129 (2lm20-4x2lm20-4); S0129wt
- binding result (CD20 [2]): binds

B3: CD20×CD20 scorpion (S0129 backbone) with H16 scorpion linker (other)
chain: EIVLTQSPATLSLSPGERATLSCRASSSVSYIVWYQQKPGQAPRLLIYAPSNLASGIPARFSGSGSGTDFTLTISSLEPEDFAVYYCQQWSFNPPTFGQGTKVEIKDGGGSGGGGSGGGGSSQVQLVQSGAESKKPGASVKVSCKASGYTFTSYNMHWVRQAPGQGLEWMGAIYPGNGDTSYNQKFKGRVTMTRDTSTSTVYMELSSLRSEDTAVYYCARSYYSNSYWYFDLWGRGTLVTVSSS[in this place human IgG1 Fc with changes]LSVKADFLTPSIGNSQVQLVQSGAESKKPGASVKVSCKASGYTFTSYNMHWVRQAPGQGLEWMGAIYPGNGDTSYNQKFKGRVTMTRDTSTSTVYMELSSLRSEDTAVYYCARSYYSNSYWYFDLWGRGTLVTVSSGGGGSGGGGSGGGGSASEIVLTQSPATLSLSPGERATLSCRASSSVSYIVWYQQKPGQAPRLLIYAPSNLASGIPARFSGSGSGTDFTLTISSLEPEDFAVYYCQQWSFNPPTFGQGTKVEIKD
notes: also called 20×20 H16 variant
- binding result (CD20 [3]): binds

B4: CD20×CD20 scorpion (S0129 backbone) with H18 scorpion linker (other)
chain: EIVLTQSPATLSLSPGERATLSCRASSSVSYIVWYQQKPGQAPRLLIYAPSNLASGIPARFSGSGSGTDFTLTISSLEPEDFAVYYCQQWSFNPPTFGQGTKVEIKDGGGSGGGGSGGGGSSQVQLVQSGAESKKPGASVKVSCKASGYTFTSYNMHWVRQAPGQGLEWMGAIYPGNGDTSYNQKFKGRVTMTRDTSTSTVYMELSSLRSEDTAVYYCARSYYSNSYWYFDLWGRGTLVTVSSS[in this place human IgG1 Fc with changes]LSVLANFSQPEIGNSQVQLVQSGAESKKPGASVKVSCKASGYTFTSYNMHWVRQAPGQGLEWMGAIYPGNGDTSYNQKFKGRVTMTRDTSTSTVYMELSSLRSEDTAVYYCARSYYSNSYWYFDLWGRGTLVTVSSGGGGSGGGGSGGGGSASEIVLTQSPATLSLSPGERATLSCRASSSVSYIVWYQQKPGQAPRLLIYAPSNLASGIPARFSGSGSGTDFTLTISSLEPEDFAVYYCQQWSFNPPTFGQGTKVEIKD
notes: also called 20×20 H18 variant
- binding result (CD20 [3]): binds

B5: CD20×CD20 scorpion (S0129 backbone) with H17 scorpion linker (other)
chain: EIVLTQSPATLSLSPGERATLSCRASSSVSYIVWYQQKPGQAPRLLIYAPSNLASGIPARFSGSGSGTDFTLTISSLEPEDFAVYYCQQWSFNPPTFGQGTKVEIKDGGGSGGGGSGGGGSSQVQLVQSGAESKKPGASVKVSCKASGYTFTSYNMHWVRQAPGQGLEWMGAIYPGNGDTSYNQKFKGRVTMTRDTSTSTVYMELSSLRSEDTAVYYCARSYYSNSYWYFDLWGRGTLVTVSSS[in this place human IgG1 Fc with changes]LSVKADFLTPSISCPPCPNSQVQLVQSGAESKKPGASVKVSCKASGYTFTSYNMHWVRQAPGQGLEWMGAIYPGNGDTSYNQKFKGRVTMTRDTSTSTVYMELSSLRSEDTAVYYCARSYYSNSYWYFDLWGRGTLVTVSSGGGGSGGGGSGGGGSASEIVLTQSPATLSLSPGERATLSCRASSSVSYIVWYQQKPGQAPRLLIYAPSNLASGIPARFSGSGSGTDFTLTISSLEPEDFAVYYCQQWSFNPPTFGQGTKVEIKD
notes: also called 20×20 H17 variant
- binding result (CD20 [3]): binds
